Out of some 310,000 compounds screened, about 14,000 (4.5%) showed an effect of 50% or more. The effect is printed as a negative number. The list shows a part of the results.
target: human ether-à-go-go-related gene (hERG) potassium channel (human, UniProt Q12809); test: primary screen, population patch clamp on CHO cells stably expressing hERG
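Further: peak tail current of the secondary pulse compared with the same well before compound.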

human ether-à-go-go-related gene (hERG) potassium channel, sequence (Q12809 whole entry, looked up): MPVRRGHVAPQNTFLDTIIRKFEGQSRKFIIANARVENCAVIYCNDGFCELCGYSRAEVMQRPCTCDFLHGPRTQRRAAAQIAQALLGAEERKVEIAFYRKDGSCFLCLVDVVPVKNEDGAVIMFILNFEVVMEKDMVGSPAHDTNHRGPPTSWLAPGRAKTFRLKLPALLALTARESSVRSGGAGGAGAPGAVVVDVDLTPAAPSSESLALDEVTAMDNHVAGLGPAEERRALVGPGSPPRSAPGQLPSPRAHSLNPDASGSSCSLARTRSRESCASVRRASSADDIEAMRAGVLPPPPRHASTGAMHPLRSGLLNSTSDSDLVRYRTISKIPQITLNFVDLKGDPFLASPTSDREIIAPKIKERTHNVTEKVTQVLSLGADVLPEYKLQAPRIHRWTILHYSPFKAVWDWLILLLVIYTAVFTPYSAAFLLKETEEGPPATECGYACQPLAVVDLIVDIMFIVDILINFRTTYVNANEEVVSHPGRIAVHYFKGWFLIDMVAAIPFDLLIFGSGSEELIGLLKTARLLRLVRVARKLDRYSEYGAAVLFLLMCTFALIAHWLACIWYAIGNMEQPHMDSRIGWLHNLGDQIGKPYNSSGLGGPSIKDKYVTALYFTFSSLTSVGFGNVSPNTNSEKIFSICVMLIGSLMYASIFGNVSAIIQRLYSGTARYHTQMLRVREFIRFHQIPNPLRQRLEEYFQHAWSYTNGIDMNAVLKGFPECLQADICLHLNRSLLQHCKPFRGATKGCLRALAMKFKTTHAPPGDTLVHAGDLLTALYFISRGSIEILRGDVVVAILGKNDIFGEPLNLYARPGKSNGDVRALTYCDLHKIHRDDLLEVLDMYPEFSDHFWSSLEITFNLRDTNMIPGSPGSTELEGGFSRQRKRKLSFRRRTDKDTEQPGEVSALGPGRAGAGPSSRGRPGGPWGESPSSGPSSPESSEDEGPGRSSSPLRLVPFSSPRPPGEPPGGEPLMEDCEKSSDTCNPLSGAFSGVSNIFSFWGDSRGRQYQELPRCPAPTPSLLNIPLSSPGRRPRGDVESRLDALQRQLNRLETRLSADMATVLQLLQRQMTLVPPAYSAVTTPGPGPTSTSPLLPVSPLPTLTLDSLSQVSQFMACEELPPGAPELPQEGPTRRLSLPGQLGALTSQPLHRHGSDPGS

Compound | hERG current change (%, negative = inhibition) at 10uM
O=C(NC(=S)N1CCN(Cc2ccc3c(c2)OCO3)CC1)c1cccc(Br)c1 | 3.94%
COc1ccc(CCN(C)C(=O)c2cc(S(=O)(=O)N3CCCCCC3)ccc2OC)cc1OC | -31.8%
CSCCC(NC(=O)c1ccccc1)C(=O)NNC(=O)c1csc(N2CCOCC2)n1 (stereo not shown) | 20.9%
CCCCn1c(N)c(N(CCOC)C(=O)c2cc(-c3ccc(OC)cc3)nc3ccccc23)c(=O)[nH]c1=O | -1.57%
CCN(C(=O)COC(=O)c1cc(S(=O)(=O)Nc2c(C)n(C)n(-c3ccccc3)c2=O)ccc1Cl)C1CCCCC1 | -49.9%
S=c1[nH]ccn1-c1cccc(Cl)c1 | 19.2%
Cc1ccc(NC(=O)CCNC(=O)c2ccco2)cc1 | 14.8%
Cc1cccc2c(=O)cc(C(F)(F)F)[nH]c12 | 13.8%
Cc1cccc(NC2=Nc3ccccc3N3C2=Nc2c(c(C)nn2-c2ccccc2)C3c2ccc(O)c(O)c2)c1 (stereo not shown) | -3.53%
CSc1ccc(C#N)cc1NC(=O)c1cccnc1Cl | 9.6%
Cc1ccc(CCNC(=O)C2CCN(S(=O)(=O)N3CCC4(CC3)OCCO4)CC2)cc1 | -2.29%
COc1ccccc1OCc1nc(C#N)c(N2CC(C)CC(C)C2)o1 (stereo not shown) | -24.7%
O=C(CN1CCCC1)OCCCc1ccccc1 | 6.79%
CCOC(=O)C1CCCN(C(=O)/C=C/c2ccc(OC)cc2)C1 (stereo not shown) | -23.6%
COc1ccc(OC)c(/C=C/C(=O)N2CCN(S(=O)(=O)c3ccc(C)cc3C)CC2)c1 | -1.49%
CCc1nnc(NC(=O)CSc2nnc(-c3ccc(NS(=O)(=O)c4ccccc4)cc3)o2)s1 | 12.1%
Cc1nc(N2CCC3(CC2)OCCO3)c2nnn(Cc3ccccc3F)c2n1 | -7.48%
O=C(NNS(=O)(=O)c1cccc(Cl)c1)c1cc(-c2ccc(F)cc2)nc2ccccc12 | 11.6%
CC(=O)c1ccccc1NC(=O)C1CCCN(C(=O)c2ccc(Cl)cc2)C1 (stereo not shown) | -25.6%
CCOc1cc(NC(=O)c2cccs2)c(OCC)cc1NC(=O)CCC(=O)NCCN1CCOCC1 | 26.5%
CCOC(=O)c1ccc(NCc2cccnc2)cc1 | 0.518%
Cn1ccnc1SCC(=O)c1c[nH]c2ccccc12 | 23%
NC(=O)c1cc(N)ccc1N1CCCCC1 | -17.5%
O=C(O)CCn1cc(-c2ccc(F)cc2)nc1-c1ccncc1 | 9.13%
O=C(O)CC(NC(=O)C12CC3CC(CC(C3)C1)C2)c1cccc(Cl)c1 (stereo not shown) | 6.58%
Cc1ccc(S(=O)(=O)NCCOc2cc(C)ccc2C)cc1 | -6.41%
COc1ccc(N(C(C)C(=O)N/N=C/c2ccc(OC(C)C)cc2)S(C)(=O)=O)cc1 (stereo not shown) | -52.4%
Cc1cc(C)c(C#N)c(SCC(=O)Nc2ccccc2)n1 | 13.3%

Compound | hERG current change (%, negative = inhibition) at 10uM
CCOC(=O)C1(Cc2cccc(F)c2)CCN(CC(O)CO)CC1 (stereo not shown) | 14.5%
O=Cc1ccc(OC(=O)C2CC(=O)N(c3ccc(F)cc3)C2)cc1 (stereo not shown) | -0.986%
O=C(CSc1nnnn1-c1cccc(F)c1)NC1CCCCC1 | 3.93%
CC(=O)c1cccc(NC(=O)COc2ccc(S(=O)(=O)N3CCCCC3)cc2)c1 | -36.9%
Cc1ccc(/C=N/N=C/c2ccc(C)s2)s1 | 7.85%
COc1ccc(-n2nc(C(=O)O)nc2-c2ccccc2)cc1 | 14.1%
O=C(CCn1nnc2ccccc21)Nc1nnc(-c2ccccc2F)s1 | 3.13%
O=C(CSc1nnc(-c2ccc(F)cc2)c2ccccc12)Nc1ccccc1 | 6.68%
CCN(CC)c1ccc(NC(=O)c2cccc(F)c2)c(C)c1 | -8.26%
Cc1ccc(NC(=O)c2ccc(NC3=NC4CS(=O)(=O)CC4S3)cc2)cc1 (stereo not shown) | 11.3%
O=C(CN(C(=O)CNS(=O)(=O)c1ccccc1)C1CCCC1)NCc1ccco1 | 8.31%
O=S(=O)(NCC(Nc1ccc(Cl)cc1)c1ccccc1)c1ccccc1 (stereo not shown) | -4.66%
O=C(O)CCSCC(=O)Nc1c(C(=O)C2CC2)oc2ccccc12 | 2.37%
COCCC(=O)N1CCC(Oc2ccc(C(=O)NC3Cc4ccccc4C3)cc2)CC1 | -8.88%
CC(=O)c1c(C(C)=O)c(C)n(C2CCCCC2)c1C | 2.97%
Cc1ccc(N=Nc2ccc(O)c3ncccc23)cc1C | 0.551%
CC(C)C(C)NC(=O)COC(=O)/C=C/c1ccc(S(=O)(=O)N2CCc3ccccc32)cc1 (stereo not shown) | 23.2%
O=C(Nc1ccc2nsnc2c1)NC1CCCCC1 | -8.28%
COc1cccc(OCCn2cc(C(=O)c3ccco3)c3ccccc32)c1 | 20.1%
O=c1[nH]c2ccc(S(=O)(=O)Nc3ccc(Br)cc3)cc2[nH]1 | 19.3%
COc1ccc2cc(CN(Cc3ccco3)C(c3nnnn3C3CCCCC3)C(C)C)c(=O)[nH]c2c1 (stereo not shown) | 0.199%
Cc1cccc(C)c1Nc1nnc(SC/C(O)=C(\C#N)c2nc3ccccc3[nH]2)s1 | 21.3%
Cc1occc1C(=O)NCCCCNC(=O)c1ccoc1C | -11.9%
CCOCCCn1c(SCC(=O)/C(C#N)=C(\C)N)nc2ccccc2c1=O | 19.6%
COc1ccc(/C=N/NC(=O)C2c3ccccc3Oc3ccccc32)c(OC)c1 | 16%
O=C(Oc1cccc(NC2=NS(=O)(=O)c3ccccc32)c1)c1cccnc1 | 19.9%
O=C(CCCn1c(SCC(=O)NC2CCCCC2)nc2ccccc2c1=O)NCC1CCCO1 (stereo not shown) | -61.5%

— paper PMC4336329 (PLoS ONE, 2015)
